# Reference: the supplement of paper PMC8728848
# The list shows a part of the results.
# B1: Dectin2 (Homo sapiens), Q6EIG7 (protein)
# chain: MMQEQQPQSTEKRGWLSLRLWSVAGISIALLSACFIVSCVVTYHFTYGETGKRLSELHSYHSSLTCFSEGTKVPAWGCCPASWKSFGSSCYFISSEEKVWSKSEQNCVEMGAHLVVFNTEAEQNFIVQQLNESFSYFLGLSDPQGNNNWQWIDKTPYEKNVRFWHLGEPNHSAEQCASIVFWKPTGWGWNDVICETRRNSICEMNKIYL
# Legend:
# Assay in all cases: glycan array binding signal (z-score within array); higher = stronger binding
# Settings in all cases: glycan notation: IUPAC condensed, linker removed
# [1] = biological target: Neu5Ac(a2-3)Gal(b1-4)GlcNAc(b1-3)[Neu5Ac(a2-3)Gal(b1-4)GlcNAc(b1-6)]GalNAc
# Summary of the method: (§1)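 Glycan array binding is given as a within-array Z-score, which can be read as non-binding when negative. The arrays, 3228 of them, came from the Consortium for Functional Glycomics database and were retained only where the protein sequence was available. Z-scores were averaged across arrays of the same protein sequence at different concentrations or buffers and across linkers.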
# [2] = biological target: Neu5Ac(a2-3)Gal(b1-4)GlcNAc(b1-6)GalNAc
# Summary of the method: as §1
# [3] = biological target: Neu5Ac(a2-3)Gal(b1-4)GlcNAc(b1-6)[Gal(b1-3)]GalNAc
# Summary of the method: as §1
# [4] = biological target: Neu5Ac(a2-3)Gal(b1-4)GlcNAc(b1-6)[Neu5Ac(a2-3)Gal(b1-3)]GalNAc
# Summary of the method: as §1
# [5] = biological target: Neu5Ac(a2-3)Gal(b1-4)GlcNAc6S
# Summary of the method: as §1
# [6] = biological target: Neu5Ac(a2-3)Gal(b1-4)[Fuc(a1-3)]GlcNAc
# Summary of the method: as §1
# [7] = biological target: Neu5Ac(a2-3)Gal(b1-4)[Fuc(a1-3)]GlcNAc(b1-2)Man
# Summary of the method: as §1
# [8] = biological target: Neu5Ac(a2-3)Gal(b1-4)[Fuc(a1-3)]GlcNAc(b1-3)Gal
# Summary of the method: as §1
# [9] = biological target: Neu5Ac(a2-3)Gal(b1-4)[Fuc(a1-3)]GlcNAc(b1-3)Gal(b1-4)GlcNAc
# Summary of the method: as §1
# [10] = biological target: Neu5Ac(a2-3)Gal(b1-4)[Fuc(a1-3)]GlcNAc(b1-3)Gal(b1-4)[Fuc(a1-3)]GlcNAc(b1-3)Gal(b1-4)[Fuc(a1-3)]GlcNAc
# Summary of the method: as §1
# [11] = biological target: Neu5Ac(a2-3)Gal(b1-4)[Fuc(a1-3)]GlcNAc(b1-3)GalNAc
# Summary of the method: as §1
# [12] = biological target: Neu5Ac(a2-3)Gal(b1-4)[Fuc(a1-3)]GlcNAc(b1-6)[Gal(b1-3)]GalNAc
# Summary of the method: as §1
# [13] = biological target: Neu5Ac(a2-3)Gal(b1-4)[Fuc(a1-3)]GlcNAc(b1-6)[Neu5Ac(a2-3)Gal(b1-3)]GalNAc
# Summary of the method: as §1
# [14] = biological target: Neu5Ac(a2-3)Gal(b1-4)[Fuc(a1-3)]GlcNAc6S
# Summary of the method: as §1
# [15] = biological target: Neu5Ac(a2-3)Gal6S(b1-4)GlcNAc
# Summary of the method: as §1
# [16] = biological target: Neu5Ac(a2-3)Gal6S(b1-4)[Fuc(a1-3)]GlcNAc
# Summary of the method: as §1
# Neu5Ac(a2-3)GalNAc = biological target: Neu5Ac(a2-3)GalNAc
# Summary of the method: as §1
# [17] = biological target: Neu5Ac(a2-3)GalNAc(b1-4)GlcNAc
# Summary of the method: as §1
# [18] = biological target: Neu5Ac(a2-3)[GalNAc(b1-4)]Gal(b1-4)Glc
# Summary of the method: as §1
# [19] = biological target: Neu5Ac(a2-3)[GalNAc(b1-4)]Gal(b1-4)GlcNAc
# Summary of the method: as §1
# [20] = biological target: Neu5Ac(a2-3)[GalNAc(b1-4)]Gal(b1-4)GlcNAc(b1-3)GalNAc
# Summary of the method: as §1
# [21] = biological target: Neu5Ac(a2-3)[Neu5Ac(a2-6)]GalNAc
# Summary of the method: as §1
# Neu5Ac(a2-6)Gal = biological target: Neu5Ac(a2-6)Gal
# Summary of the method: as §1
# [22] = biological target: Neu5Ac(a2-6)Gal(b1-3)GlcNAc(b1-3)[Gal(b1-4)GlcNAc(b1-6)]Gal(b1-4)Glc
# Summary of the method: as §1
# Neu5Ac(a2-6)Gal(b1-4)Glc = biological target: Neu5Ac(a2-6)Gal(b1-4)Glc
# Summary of the method: as §1
# [23] = biological target: Neu5Ac(a2-6)Gal(b1-4)GlcNAc
# Summary of the method: as §1
# [24] = biological target: Neu5Ac(a2-6)Gal(b1-4)GlcNAc(b1-2)Man
# Summary of the method: as §1
# [25] = biological target: Neu5Ac(a2-6)Gal(b1-4)GlcNAc(b1-2)Man(a1-3)Man(b1-4)GlcNAc(b1-4)GlcNAc
# Summary of the method: as §1
# [26] = biological target: Neu5Ac(a2-6)Gal(b1-4)GlcNAc(b1-2)Man(a1-3)[Gal(b1-4)GlcNAc(b1-2)Man(a1-6)]Man(b1-4)GlcNAc(b1-4)GlcNAc
# Summary of the method: as §1
# [27] = biological target: Neu5Ac(a2-6)Gal(b1-4)GlcNAc(b1-2)Man(a1-3)[GlcNAc(b1-4)][Neu5Ac(a2-6)Gal(b1-4)GlcNAc(b1-2)Man(a1-6)]Man(b1-4)GlcNAc(b1-4)GlcNAc
# Summary of the method: as §1
# [28] = biological target: Neu5Ac(a2-6)Gal(b1-4)GlcNAc(b1-2)Man(a1-3)[Man(a1-6)]Man(b1-4)GlcNAc(b1-4)GlcNAc
# Summary of the method: as §1
# [29] = biological target: Neu5Ac(a2-6)Gal(b1-4)GlcNAc(b1-2)Man(a1-3)[Neu5Ac(a2-3)Gal(b1-4)GlcNAc(b1-2)Man(a1-6)]Man(b1-4)GlcNAc(b1-4)GlcNAc
# Summary of the method: as §1
# [30] = biological target: Neu5Ac(a2-6)Gal(b1-4)GlcNAc(b1-2)Man(a1-3)[Neu5Ac(a2-6)Gal(b1-4)GlcNAc(b1-2)Man(a1-6)]Man(b1-4)GlcNAc(b1-4)GlcNAc
# Summary of the method: as §1
# [31] = biological target: Neu5Ac(a2-6)Gal(b1-4)GlcNAc(b1-2)Man(a1-3)[Neu5Ac(a2-6)Gal(b1-4)GlcNAc(b1-2)Man(a1-6)]Man(b1-4)GlcNAc(b1-4)[Fuc(a1-6)]GlcNAc
# Summary of the method: as §1
# [32] = biological target: Neu5Ac(a2-6)Gal(b1-4)GlcNAc(b1-2)Man(a1-6)Man(b1-4)GlcNAc(b1-4)GlcNAc
# Summary of the method: as §1
# [33] = biological target: Neu5Ac(a2-6)Gal(b1-4)GlcNAc(b1-2)Man(a1-6)[Gal(b1-4)GlcNAc(b1-2)Man(a1-3)]Man(b1-4)GlcNAc(b1-4)GlcNAc
# Summary of the method: as §1
# [34] = biological target: Neu5Ac(a2-6)Gal(b1-4)GlcNAc(b1-2)Man(a1-6)[GlcNAc(b1-2)Man(a1-3)]Man(b1-4)GlcNAc(b1-4)GlcNAc
# Summary of the method: as §1
# [35] = biological target: Neu5Ac(a2-6)Gal(b1-4)GlcNAc(b1-2)Man(a1-6)[Man(a1-3)]Man(b1-4)GlcNAc(b1-4)GlcNAc
# Summary of the method: as §1
# [36] = biological target: Neu5Ac(a2-6)Gal(b1-4)GlcNAc(b1-2)[Neu5Ac(a2-6)Gal(b1-4)GlcNAc(b1-4)]Man(a1-3)[GlcNAc(b1-4)][Neu5Ac(a2-6)Gal(b1-4)GlcNAc(b1-2)[Neu5Ac(a2-6)Gal(b1-4)GlcNAc(b1-6)]Man(a1-6)]Man(b1-4)GlcNAc(b1-4)GlcNAc
# Summary of the method: as §1
# [37] = biological target: Neu5Ac(a2-6)Gal(b1-4)GlcNAc(b1-2)[Neu5Ac(a2-6)Gal(b1-4)GlcNAc(b1-4)]Man(a1-3)[GlcNAc(b1-4)][Neu5Ac(a2-6)Gal(b1-4)GlcNAc(b1-4)Man(a1-6)]Man(b1-4)GlcNAc(b1-4)GlcNAc
# Summary of the method: as §1
# [38] = biological target: Neu5Ac(a2-6)Gal(b1-4)GlcNAc(b1-2)[Neu5Ac(a2-6)Gal(b1-4)GlcNAc(b1-6)]Man(a1-6)[Neu5Ac(a2-6)Gal(b1-4)GlcNAc(b1-2)Man(a1-3)][GlcNAc(b1-4)]Man(b1-4)GlcNAc(b1-4)GlcNAc
# Summary of the method: as §1
# [39] = biological target: Neu5Ac(a2-6)Gal(b1-4)GlcNAc(b1-3)Gal(b1-3)GlcNAc
# Summary of the method: as §1
# [40] = biological target: Neu5Ac(a2-6)Gal(b1-4)GlcNAc(b1-3)Gal(b1-4)GlcNAc
# Summary of the method: as §1
# [41] = biological target: Neu5Ac(a2-6)Gal(b1-4)GlcNAc(b1-3)Gal(b1-4)GlcNAc(b1-2)Man(a1-3)[Neu5Ac(a2-6)Gal(b1-4)GlcNAc(b1-3)Gal(b1-4)GlcNAc(b1-2)Man(a1-6)]GalNAc
# Summary of the method: as §1
# [42] = biological target: Neu5Ac(a2-6)Gal(b1-4)GlcNAc(b1-3)Gal(b1-4)GlcNAc(b1-3)Gal(b1-4)GlcNAc
# Summary of the method: as §1
binder,measurement,setting,value
B1,glycan array binding signal (z-score),[1],-0.192
same,glycan array binding signal (z-score),[2],-0.205
same,glycan array binding signal (z-score),[3],0.201
same,glycan array binding signal (z-score),[4],-0.195
same,glycan array binding signal (z-score),[5],-0.201
same,glycan array binding signal (z-score),[6],-0.202
same,glycan array binding signal (z-score),[7],-0.193
same,glycan array binding signal (z-score),[8],-0.198
same,glycan array binding signal (z-score),[9],-0.132
same,glycan array binding signal (z-score),[10],-0.098
same,glycan array binding signal (z-score),[11],-0.099
same,glycan array binding signal (z-score),[12],-0.113
same,glycan array binding signal (z-score),[13],-0.104
same,glycan array binding signal (z-score),[14],-0.192
same,glycan array binding signal (z-score),[15],-0.173
same,glycan array binding signal (z-score),[16],-0.193
same,glycan array binding signal (z-score),Neu5Ac(a2-3)GalNAc,0.723
same,glycan array binding signal (z-score),[17],-0.168
same,glycan array binding signal (z-score),[18],-0.18
same,glycan array binding signal (z-score),[19],-0.176
same,glycan array binding signal (z-score),[20],-0.049
same,glycan array binding signal (z-score),[21],0.342
same,glycan array binding signal (z-score),Neu5Ac(a2-6)Gal,-0.194
same,glycan array binding signal (z-score),[22],-0.178
same,glycan array binding signal (z-score),Neu5Ac(a2-6)Gal(b1-4)Glc,-0.165
same,glycan array binding signal (z-score),[23],-0.182
same,glycan array binding signal (z-score),[24],-0.181
same,glycan array binding signal (z-score),[25],-0.065
same,glycan array binding signal (z-score),[26],0.18
same,glycan array binding signal (z-score),[27],-0.169
same,glycan array binding signal (z-score),[28],-0.064
same,glycan array binding signal (z-score),[29],-0.182
same,glycan array binding signal (z-score),[30],-0.151
same,glycan array binding signal (z-score),[31],-0.123
same,glycan array binding signal (z-score),[32],-0.099
same,glycan array binding signal (z-score),[33],-0.188
same,glycan array binding signal (z-score),[34],-0.207
same,glycan array binding signal (z-score),[35],-0.144
same,glycan array binding signal (z-score),[36],-0.192
same,glycan array binding signal (z-score),[37],-0.193
same,glycan array binding signal (z-score),[38],-0.171
same,glycan array binding signal (z-score),[39],-0.17
same,glycan array binding signal (z-score),[40],-0.175
same,glycan array binding signal (z-score),[41],-0.114
same,glycan array binding signal (z-score),[42],-0.182
